The target in the test is T1, sdAb20 fused to a mouse IgG2a-Fc tail.
T1 construct: as the VHH of m1; The His6 tag of sdAb20 was replaced by the mIgG2a-Fc region; Size about 80 kDa; also called sdAb20-Fc; Fc-coupled sdAb20; source: bought: ImmunoPrecise Antibodies; not shown: Fc (mouse IgG2a), C-terminal, kept
Description: flow cytometry on cells; sdAb20 or sdAb20-Fc on AXL-expressing human and murine cancer cell lines, compared with the irrelevant control R3B23 or R3B23-Fc; read-out MFI. As to conditions: one partner purified. Background: In flow cytometry, cells or beads pass a laser one at a time.

T1 sequence (P30530 26-894): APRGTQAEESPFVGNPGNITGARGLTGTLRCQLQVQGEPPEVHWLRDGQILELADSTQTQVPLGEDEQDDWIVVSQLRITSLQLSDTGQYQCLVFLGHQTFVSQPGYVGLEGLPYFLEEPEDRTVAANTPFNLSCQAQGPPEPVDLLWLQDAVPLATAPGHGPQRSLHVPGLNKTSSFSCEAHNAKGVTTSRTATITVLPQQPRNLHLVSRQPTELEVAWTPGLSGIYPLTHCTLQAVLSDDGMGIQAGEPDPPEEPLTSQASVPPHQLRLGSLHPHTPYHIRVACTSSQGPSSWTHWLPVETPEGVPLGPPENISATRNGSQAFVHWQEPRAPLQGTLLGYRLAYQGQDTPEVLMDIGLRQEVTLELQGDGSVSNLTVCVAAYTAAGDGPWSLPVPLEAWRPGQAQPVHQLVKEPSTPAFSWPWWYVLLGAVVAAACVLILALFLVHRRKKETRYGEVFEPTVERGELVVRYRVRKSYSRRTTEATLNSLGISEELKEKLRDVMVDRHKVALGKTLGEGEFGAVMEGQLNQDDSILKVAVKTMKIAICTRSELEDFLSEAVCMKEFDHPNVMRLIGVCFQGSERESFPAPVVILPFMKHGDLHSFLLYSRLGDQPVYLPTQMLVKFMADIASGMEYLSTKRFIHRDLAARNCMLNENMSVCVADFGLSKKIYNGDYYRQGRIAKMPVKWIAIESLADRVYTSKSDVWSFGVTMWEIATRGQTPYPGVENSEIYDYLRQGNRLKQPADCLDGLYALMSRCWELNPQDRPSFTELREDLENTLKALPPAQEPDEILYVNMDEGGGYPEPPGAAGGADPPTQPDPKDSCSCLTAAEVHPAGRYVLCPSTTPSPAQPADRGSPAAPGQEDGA

B1: human AXL on AXL^+ human cancer cell lines (receptor)
chain: not shown
notes: receptor tyrosine kinase AXL, human, on the surface of AXL-positive cell lines; also called AXL receptor; source: endogenous, on THP-1, MOLM-13, MV-4-11, A549 and HCT-116 cells
B1: the binding result is given as “binds”.

The record behind these values is paper PMC11103505, “AXL-specific single domain antibodies show diagnostic potential and anti-tumor activity in Acute Myeloid Leukemia” (Theranostics, 2024).
